Out of some 150,000 compounds screened, about 540 (0.36%) showed an effect of 50% or more. The list shows a part of the results.
What follows are compounds tested on Plasmodium falciparum (assay: Primary screen in NF54 nanoGlo assay, in single point, at 2uM, 72h; a lower Z score goes with more inhibition). Conditions: timepoint 72 hour.
Format: functional, Erythrocyte

Compound | % Inhibition [%] | Z score
COc1ccccc1-c1noc(C[C@H]2CCOc3ccccc32)n1 | -3 | 0.41
O=C(NCCn1c(-c2ccccc2)nc2ccccc21)Nc1cccc(F)c1 | -9 | 1.19
CCc1nccn1CCN1CCCC[C@@H]1CCO | -4 | 0.51
Cc1cc(NC(=O)N2CCn3nc(C(F)(F)F)cc3C2)cc(C)n1 | -1 | 0.27
CN(C)C(=O)COC(=O)c1ccc(O)cc1O | 21 | -2.87
Cc1ccc(=O)n(CC(=O)N2CCC(Cc3ccccc3)CC2)n1 | 13 | -1.74
CC[C@@H]1CCO[C@@H]1C(=O)Nc1cccc(CC(=O)O)c1 | 5 | -0.75
O=C(N[C@H]1CCN(C2CCCCC2)C1)c1cccnn1 | -14 | 2.16
CC(C)C1CC(Nc2nnc(C(F)F)o2)CCO1 (centres undefined) | -14 | 1.99
O=C(CN1CCCN(c2ccc(C(F)(F)F)cn2)CC1)Nc1ccnn1Cc1cccs1 | -1 | 0.16
Cn1c(CN2CCCCCC2)nnc1C1CCN(C2CCCC2)CC1 | 3 | -0.49
O=C(O)c1ccc2c(c1)CN(C[C@H](O)c1ccc(Cl)cc1)CC2 | -8 | 1.18
Cc1c(Nc2ccc(S(=O)(=O)N3CCOCC3)cc2Cl)c(=O)n(-c2ccccc2)n1C | -1 | 0.14
CCN(CC)C(=O)[C@@H]1CCCN1Cc1ccsc1 | -5 | 0.71
CC1=C(C(=O)N2CCOCC2)[C@H](c2ccccc2Cn2cccn2)NC(=O)N1 | -21 | 2.08
Cc1cc(CN(C)C(=O)c2ccc3nc(C4CCCCC4)oc3c2)n[nH]1 | -5 | 0.9
CCCc1cc(NC(=O)NCCn2cc(C(=O)OC)nn2)n(C)n1 | -3 | 0.27
CCCN(CCC)S(=O)(=O)c1cc(-c2c(C)nn3c2NC(=O)CCC3=O)ccc1OC | -11 | 1.32
O=C(NCc1ccsc1)N1CCC[C@H](CN2CCOCC2)C1 | 0 | -0.04
CCn1nnc2c(N3CCN(C(=O)NCCc4ccc(OC)cc4)CC3)ncnc21 | 4 | -0.64
O=C(c1ccccc1Cl)N1N=C(C2CCCCC2)C[C@]1(O)C(F)(F)F | -14 | 1.54

Compound | % Inhibition [%] | Z score
CC(C)(C)n1cc(CN2CCO[C@H](c3cc(F)c(Cl)cc3Cl)C2)nn1 | -3 | 0.35
O=C(NC1CC2CCC1O2)NC1CC1c1ccc(F)cc1F (centres undefined) | 4 | -0.58
Cc1ccccc1C(=O)N[C@@H]1CCCC[C@H]1NC(=O)C1CCCN(C(=O)C2CCCC2)C1 (some centres undefined) | -6 | 0.54
COc1ccc(N2CCN(C(=O)c3ncn(C[C@H](O)c4ccccc4)n3)CC2)cc1 | 5 | -0.59
CCCc1ccc(-c2cc(NC(=O)[C@@H]3CCCO3)n(CCO)n2)cc1 | -1 | 0.13
COc1ccccc1N1C(=O)C2C(C)NC3(C(=O)N(CC(=O)N4CCOCC4)c4ccccc43)C2C1=O (centres undefined) | -4 | 0.6
COCCc1nc(CCn2nnnc2C)n(-c2cc(Cl)ccc2OC)n1 | -20 | 1.87
COCC[C@H]1CN(Cc2nncn2C(C)C)CCO1 | 9 | -1.23
Cc1cc(C(=O)N2CCC[C@H]2C(=O)NCC2CCOCC2)c2nccc(C)c2c1 | 0 | -0.05
CC(C)(C)OC(=O)NCCNC(=O)Nc1cc(C2CC2)nn1-c1ccccc1 | 3 | -0.55
COc1ccc(CN(CCN2CCOCC2)C[C@H](O)COCc2ccccc2)cc1OC | 6 | -1.13
CC(=O)N[C@@H]1c2ccccc2C2(CCN(C(=O)Cc3ccccc3F)CC2)[C@H]1OCc1ccncc1 | -5 | 0.74
Cc1cccc(NC(=O)N2CC(C)C2C)n1 (centres undefined) | 18 | -2.84
CC(C)(O)[C@H]1CCN(C(=O)CCc2cccnc2)C1 | -8 | 1.55
COc1cncc(O[C@H]2CCCN(C(=O)c3ccsc3)C2)n1 | -5 | 0.82
Cc1ccc2nc(COc3cccc(C(=O)N4C[C@@H](CO)[C@H](C)C4)c3)cn2c1 | -17 | 2.15
Cc1[nH]c2c(CN(CCN(C)C)C[C@H]3CCCO3)cccc2c1C | -6 | 1.03
Cc1nc(C(C)C)sc1-c1nc(C(C)C)no1 | -4 | 0.5
O=C(NC[C@H]1CCCN(C(=O)C2CCOCC2)C1)c1ccc2ccccc2n1 | -10 | 1.71
COc1cncc(O[C@H]2CCN(S(=O)(=O)c3cc(C)ccc3OC)C2)n1 | -8 | 0.94
CN1CC2(CCN(C(=O)c3coc(CN4CCOCC4)c3)CC2)CC1=O | -10 | 1.22

Source: ChEMBL document CHEMBL4888484, “Replenishing the malaria drug discovery pipeline: Screening and hit evaluation of the MMV Hit Generation Library 1 (HGL1) against asexual blood stage Plasmodium falciparum ,using a nano luciferase reporter read-out” (2022)
